The other results are listed elsewhere or left out. Many values rest on one well or one pass, so single values are uncertain.
system: MeWo; test: cell count relative to DMSO control; melanoma cells; higher = more viable cells; details: library dose: standard library concentration; 72 h
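Also: cells treated in 1,536-well plates, then fixed and DAPI-stained, with nuclei counted from automated high-throughput microscope images.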

Question: How did the cell count turn out when `CN(NC(=O)CC(=O)NN(C)C(=S)c1ccccc1)C(=S)c1ccccc1` + COc1cc(N2CCC(N3CCN(C)CC3)CC2)ccc1Nc1ncc(Cl)c(Nc2ccccc2S(=O)(=O)C(C)C)n1 [NVP-TAE684] (first compound 0.03 µM, partner dose 0.4 µM) was run?
Answer: 8.87%

Question: For `CN(NC(=O)CC(=O)NN(C)C(=S)c1ccccc1)C(=S)c1ccccc1` + CCCCCCCCCCCC1=C(O)C(=O)C=C(O)C1=O [Embelin] (first compound 0.03 µM, partner dose 6 µM), which cell count is on record?
Answer: 17.9%

Question: With `CC(C)(C)c1cnc(CSc2cnc(NC(=O)C3CCNCC3)s2)o1` + O=C(Nc1ccccc1)c1cc([N+](=O)[O-])ccc1Cl [GW9662] (first compound 0.05 µM, partner dose 10 µM) as the compound, how does the cell count read?
Answer: 68.3%

Question: How did the cell count turn out when `CCCCCCCCc1ccc(CCC(N)(CO)CO)cc1` [fingolimod] + CCCS(=O)(=O)Nc1ccc(F)c(C(=O)c2c[nH]c3ncc(Cl)cc23)c1F [PLX4720] (first compound 10 µM, partner dose 0.4 µM) was run?
Answer: 34.9%

Question: `CCCCCCCCc1ccc(CCC(N)(CO)CO)cc1` [fingolimod] + O=C(O)C(=O)Nc1sc2c(c1C(=O)O)CCNC2 [TCS401] (first compound 10 µM, partner dose 8.33333 µM) was tested. Which cell count did it give?
Answer: 28.8%

Question: `CCc1ccc(CCOc2ccc(CC3SC(=O)NC3=O)cc2)nc1` (stereo unspecified) [pioglitazone] + COC(=O)c1sccc1S(=O)(=O)Nc1ccc(Nc2ccccc2)cc1OC [GSK0660] (first compound 10 µM, partner dose 5 µM) was tested. Which cell count did it give?
Answer: 97.4%

Question: How did the cell count turn out when `COc1cc2c(Oc3ccc4[nH]c(C)cc4c3F)ncnc2cc1OCCCN1CCCC1` [cediranib] + COc1cc(N2CCC(N3CCN(C)CC3)CC2)ccc1Nc1ncc(Cl)c(Nc2ccccc2S(=O)(=O)C(C)C)n1 [NVP-TAE684] (first compound 2 µM, partner dose 0.4 µM) was run?
Answer: 58.6%

Question: `CC(C)(C)c1cnc(CSc2cnc(NC(=O)C3CCNCC3)s2)o1` + CCCCCCCCCCCC1=C(O)C(=O)C=C(O)C1=O [Embelin] (first compound 0.05 µM, partner dose 6 µM) was tested. Which cell count did it give?
Answer: 95.3%

Question: With `CCCCCCCCc1ccc(CCC(N)(CO)CO)cc1` [fingolimod] + CN1CCN(c2ccc3nc(-c4c(N)c5c(F)cccc5[nH]c4=O)[nH]c3c2)CC1 [Dovitinib] (first compound 10 µM, partner dose 0.5 µM) as the compound, how does the cell count read?
Answer: 7.4%

Question: `CCCCCCCCc1ccc(CCC(N)(CO)CO)cc1` [fingolimod] + COc1ccc2c(c1)CCC1C2CCC2(C)C(NCCCCCCN3C(=O)C=CC3=O)CCC12 [U73122] (first compound 10 µM, partner dose 2 µM) was tested. Which cell count did it give?
Answer: 17.2%

Question: `Cc1ccc(NC(=O)c2cccc(N(C)C)c2)cc1NC(=O)c1ccc(O)cc1` + Cc1cc(N2CCOCC2)cc2[nH]c(-c3c(NC[C@@H](O)c4cccc(Cl)c4)cc[nH]c3=O)nc12 [BMS536924] (first compound 10 µM, partner dose 1 µM) was tested. Which cell count did it give?
Answer: 74.1%

Question: How did the cell count turn out when `NC(=O)c1ccc(N(C(N)=O)c2c(F)cccc2F)nc1-c1ccc(F)cc1F` + CCCCCCCCCCCC1=C(O)C(=O)C=C(O)C1=O [Embelin] (first compound 2 µM, partner dose 6 µM) was run?
Answer: 93.2%

Question: How did the cell count turn out when `NC(=O)c1ccc(N(C(N)=O)c2c(F)cccc2F)nc1-c1ccc(F)cc1F` + Cn1nnc2c(C(N)=O)ncn2c1=O [temozolomide] (first compound 2 µM, partner dose 10 µM) was run?
Answer: 111%

Question: Which cell count does the source give for `CN(NC(=O)CC(=O)NN(C)C(=S)c1ccccc1)C(=S)c1ccccc1` + COc1ccc2c(c1)CCC1C2CCC2(C)C(NCCCCCCN3C(=O)C=CC3=O)CCC12 [U73122] (first compound 0.03 µM, partner dose 2 µM) here?
Answer: 78.9%

Question: `NC(=O)c1ccc(N(C(N)=O)c2c(F)cccc2F)nc1-c1ccc(F)cc1F` + CN(NC(=O)CC(=O)NN(C)C(=S)c1ccccc1)C(=S)c1ccccc1 [STA4783] (first compound 2 µM, partner dose 0.03 µM) was tested. Which cell count did it give?
Answer: 19.7%

Question: For `Cc1ccc(NC(=O)c2cccc(N(C)C)c2)cc1NC(=O)c1ccc(O)cc1` + O=C(Nc1cccc(Cl)c1)Nc1ncc(CCNc2ncnc3ccsc23)s1 [SNS314] (first compound 10 µM, partner dose 0.004 µM), which cell count is on record?
Answer: 57.6%

Reference: the supplement of paper PMC4604168 (melanoma cell lines)
